Key:
[1] = system: barley powdery mildew fungi (Blumeria graminis f. sp. hordei); experiment: Test Example D: barley powdery mildew, spray treatment of barley plants; details: for pest or weed control at 250 µg/mL: Blumeria graminis, in Hordeum vulgare, read-out: Test D control value class (barley powdery mildew); for Test D control value class (barley powdery mildew) / Test D control value: spray treatment of barley plants; for Test D control value class (barley powdery mildew): control value=100{1-(n/3)}; for Test D control value: barley powdery mildew
[2] = system: gray mold fungi (Botrytis cinerea); experiment: Test Example B: tomato gray mold, spray treatment of tomato plants; details: spray treatment of tomato plants; for Test B control value class (tomato gray mold): control value=100{1-(n/3)}; for Test B control value: tomato gray mold
[3] = system: wheat brown rust fungi (Puccinia recondita); experiment: Test Example E: wheat brown rust, spray treatment of wheat plants; type: in vivo; details: spray treatment of wheat plants; for Test E control value class (wheat brown rust): control value=100{1-(n/3)}; for Test E control value: wheat brown rust
[4] = system: grape downy mildew fungus (Plasmopara viticola); experiment: Test Example G: grape downy mildew, spray treatment of grape plants; details: for Test G control value class (grape downy mildew): 250 ppm spray, 2.5 ml/pot, grape Neomuscat, 7 to 10 days from inoculation; for Test G control value: grape downy mildew, 250 ppm spray (2.5 ml/pot), 7 to 10 days after inoculation

| Compound | pest or weed control at 250 µg/mL [1] [%] | Test G control value class (grape downy mildew) [4] | Test D control value [1] | Test G control value [4] | further results |
| --- | --- | --- | --- | --- | --- |
| O=c1c(Br)cn(-c2ccccc2Cl)c(-c2c(F)cc(F)cc2F)c1Br [Compound 1, 3,5-dibromo-1-(2-chlorophenyl)-2-(2,4,6-trifluorophenyl)pyridin-4(1H)-one] | > 50 | – | – | – | – |
| O=c1c(Br)cn(-c2ccccc2Cl)c(-c2c(F)cc(F)cc2F)c1Cl [Compound 2, 5-bromo-3-chloro-1-(2-chlorophenyl)-2-(2,4,6-trifluorophenyl)pyridin-4(1H)-one] | > 50 | – | – | – | – |
| O=c1c(Cl)cn(-c2ccccc2Cl)c(-c2c(F)cc(F)cc2F)c1Br [Compound 3] | – | H (H shows the control value of more than 50%) | – | – | Test D control value class (barley powdery mildew) [1]: H (H shows the control value of more than 50%); Test B control value class (tomato gray mold) [2]: H (H shows the control value of more than 50%); Test E control value class (wheat brown rust) [3]: H (H shows the control value of more than 50%) |
| O=c1c(Cl)cn(-c2ccccc2Cl)c(-c2c(F)cc(F)cc2F)c1Cl [Compound 4, 3,5-dichloro-1-(2-chlorophenyl)-2-(2,4,6-trifluorophenyl)pyridin-4(1H)-one] | > 50 | – | – | – | – |
| COc1cc(F)c(-c2c(Cl)c(=O)c(Cl)cn2-c2ccccc2Cl)c(F)c1 [Compound 5, 3,5-dichloro-1-(2-chlorophenyl)-2-(2,6-difluoro-4-methoxyphenyl)pyridin-4(1H)-one] | > 50 | – | – | – | – |
| O=c1c(Br)cn(-c2ccccc2)c(-c2c(F)cc(F)cc2F)c1Cl [Compound 9] | – | H (H shows the control value of more than 50%) | – | – | Test D control value class (barley powdery mildew) [1]: H (H shows the control value of more than 50%); Test B control value class (tomato gray mold) [2]: H (H shows the control value of more than 50%); Test E control value class (wheat brown rust) [3]: H (H shows the control value of more than 50%) |
| O=c1c(Cl)cn(-c2ccccc2)c(-c2c(F)cc(F)cc2F)c1Br [Compound 15] | – | L (L shows the control value of 50% or less) | – | – | – |
| O=c1c(Br)cn(-c2cccnc2Cl)c(-c2c(F)cc(F)cc2F)c1Br [Compound 38, 3,5-dibromo-2′-chloro-2-(2,4,6-trifluorophenyl)-4H-[1,3′-bipyridin]-4-one] | > 50 | – | – | – | – |
| COc1cc(F)c(-c2c(Cl)c(=O)c(Br)cn2-c2cccnc2OC)c(F)c1 [Compound 40] | – | L (L shows the control value of 50% or less) | – | – | – |
| O=c1c(Cl)cn(Cc2ccccc2)c(-c2c(F)cc(F)cc2F)c1Cl [Compound 48] | – | H (H shows the control value of more than 50%) | – | – | Test D control value class (barley powdery mildew) [1]: H (H shows the control value of more than 50%); Test B control value class (tomato gray mold) [2]: H (H shows the control value of more than 50%); Test E control value class (wheat brown rust) [3]: H (H shows the control value of more than 50%) |
| O=c1c(Cl)cn(Cc2ccccc2)c(-c2c(F)cc(F)cc2F)c1Br [Compound 49, 1-benzyl-3-bromo-5-chloro-2-(2,4,6-trifluorophenyl)pyridin-4(1H)-one] | > 50 | – | – | – | – |
| Cc1ccccc1-n1cc(Br)c(=O)c(Br)c1-c1c(F)cc(F)cc1F [Compound 67] | – | H (H shows the control value of more than 50%) | – | – | – |
| O=c1c(Br)cn(CCCC(F)(F)F)c(-c2c(F)cc(F)cc2F)c1Cl [Compound 71] | – | L (L shows the control value of 50% or less) | – | – | – |
| CC(c1ccccc1)n1cc(Cl)c(=O)c(Cl)c1-c1c(F)cc(F)cc1F (stereo not shown) [Compound 74] | – | L (L shows the control value of 50% or less) | – | – | – |
| CC(C)Cn1cc(Br)c(=O)c(Br)c1-c1c(F)cc(F)cc1F [Compound 116] | – | H (H shows the control value of more than 50%) | – | – | Test D control value class (barley powdery mildew) [1]: H (H shows the control value of more than 50%); Test B control value class (tomato gray mold) [2]: H (H shows the control value of more than 50%); Test E control value class (wheat brown rust) [3]: H (H shows the control value of more than 50%) |
| Cc1cc(-n2cc(Cl)c(=O)c(Br)c2-c2c(F)cc(F)cc2F)no1 [Compound 141, 3-bromo-5-chloro-1-(5-methylisoxazol-3-yl)-2-(2,4,6-trifluorophenyl)pyridin-4(1H)-one] | < 50 | – | – | – | – |

| Compound | pest or weed control at 250 µg/mL [1] [%] | Test G control value class (grape downy mildew) [4] | Test D control value [1] | Test G control value [4] | further results |
| --- | --- | --- | --- | --- | --- |
| Cc1onc(-n2cc(Cl)c(=O)c(Br)c2-c2c(F)cc(F)cc2F)c1Br [Compound 142, 3-bromo-1-(4-bromo-5-methylisoxazol-3-yl)-5-chloro-2-(2,4,6-trifluorophenyl)pyridin-4(1H)-one] | > 50 | – | – | – | – |
| CCC(C)Cn1cc(Cl)c(=O)c(Cl)c1-c1c(F)cc(F)cc1F (stereo not shown) [Compound 162, 3,5-dichloro-1-(2-methylbutyl)-2-(2,4,6-trifluorophenyl)pyridin-4(1H)-one] | > 50 | – | – | – | – |
| CCC(C)Cn1cc(Cl)c(=O)c(Br)c1-c1c(F)cc(OC)cc1F (stereo not shown) [Compound 168] | – | H (H shows the control value of more than 50%) | – | – | – |
| Cc1ccccc1-n1cc(C)c(=O)c(C)c1-c1c(F)cc(F)cc1F [Compound 174, 3,5-dimethyl-1-(o-toluyl)-2-(2,4,6-trifluorophenyl)pyridin-4(1H)-one] | > 50 | – | – | – | – |
| COc1cc(F)c(-c2c(C)c(=O)c(C)cn2-c2ccccc2C)c(F)c1 [Compound 175, 2-(2,6-difluoro-4-methoxyphenyl)-3,5-dimethyl-1-(o-toluyl)pyridin-4(1H)-one] | > 50 | – | – | – | – |
| Cc1c(F)cccc1-n1cc(Cl)c(=O)c(Cl)c1-c1c(F)cc(F)cc1F [Compound 190] | – | – | H (H shows the control value of more than 50%) | L (L shows the control value of 50% or less) | – |
| Cc1c(-c2c(F)cc(F)cc2F)n(CC(C)C)cc(Br)c1=O [Compound 219] | – | – | H (H shows the control value of more than 50%) | H (H shows the control value of more than 50%) | – |
| Cc1c(-c2c(F)cc(F)cc2F)n(CC(C)C)cc(Cl)c1=O [Compound 223] | – | – | H (H shows the control value of more than 50%) | H (H shows the control value of more than 50%) | Test B control value [2]: H (H shows the control value of more than 50%); Test E control value [3]: H (H shows the control value of more than 50%) |
| Cc1ccccc1-n1cc(C)c(=O)c(C)c1-c1ccc(C#N)cc1 [Compound 227] | – | – | L (L shows the control value of 50% or less) | L (L shows the control value of 50% or less) | Test B control value [2]: L (L shows the control value of 50% or less); Test E control value [3]: H (H shows the control value of more than 50%) |
| Cc1ccc(Cl)cc1-n1cc(Cl)c(=O)c(Cl)c1-c1c(F)cc(F)cc1F [Compound 241] | – | – | H (H shows the control value of more than 50%) | H (H shows the control value of more than 50%) | Test B control value [2]: H (H shows the control value of more than 50%); Test E control value [3]: H (H shows the control value of more than 50%) |
| Cc1ccccc1-n1cc(C)c(=O)c(C)c1-c1ccc(C(F)(F)F)cc1 [Compound 244] | – | – | L (L shows the control value of 50% or less) | L (L shows the control value of 50% or less) | – |
| Cc1ccc(Br)cc1-n1cc(Cl)c(=O)c(Cl)c1-c1c(F)cc(F)cc1F [Compound 250] | – | – | L (L shows the control value of 50% or less) | L (L shows the control value of 50% or less) | – |
| CSc1ccc(-c2c(C)c(=O)c(C)cn2-c2ccccc2C)cc1 [Compound 254] | – | – | L (L shows the control value of 50% or less) | L (L shows the control value of 50% or less) | Test B control value [2]: H (H shows the control value of more than 50%); Test E control value [3]: L (L shows the control value of 50% or less) |
| COc1ccc(-n2cc(Br)c(=O)c(Cl)c2-c2c(F)cc(F)cc2F)c(C)c1 [Compound 264] | – | – | H (H shows the control value of more than 50%) | H (H shows the control value of more than 50%) | Test B control value [2]: H (H shows the control value of more than 50%); Test E control value [3]: H (H shows the control value of more than 50%) |
| Cc1ccccc1-n1cc(Cl)c(=O)c(C)c1-c1c(F)cc(F)cc1F [Compound 265] | – | – | H (H shows the control value of more than 50%) | L (L shows the control value of 50% or less) | Test B control value [2]: H (H shows the control value of more than 50%); Test E control value [3]: H (H shows the control value of more than 50%) |
| CCc1ccccc1-n1cc(C)c(=O)c(C)c1-c1c(F)cc(F)cc1F [Compound 326] | – | – | H (H shows the control value of more than 50%) | L (L shows the control value of 50% or less) | – |
